PMC6919601, “Identification of Plasmodium dipeptidyl aminopeptidase allosteric inhibitors by high throughput screening” (PLoS ONE, 2019)
The whole screen tested about 110,000 compounds, of which about 230 (0.21%) showed an effect of 50% or more. This is one part of the list.
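Further: 30 min substrate incubation versus DMSO and 10 µM JCP410 controls.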

The molecules below were run against DPAP1 (Plasmodium falciparum, UniProt Q8IIJ9) (assay: primary screen, percent inhibition; read by cleavage of a fluorogenic dipeptide substrate; higher = more effect of the substance).
DPAP1, sequence (Q8IIJ9 whole entry, looked up): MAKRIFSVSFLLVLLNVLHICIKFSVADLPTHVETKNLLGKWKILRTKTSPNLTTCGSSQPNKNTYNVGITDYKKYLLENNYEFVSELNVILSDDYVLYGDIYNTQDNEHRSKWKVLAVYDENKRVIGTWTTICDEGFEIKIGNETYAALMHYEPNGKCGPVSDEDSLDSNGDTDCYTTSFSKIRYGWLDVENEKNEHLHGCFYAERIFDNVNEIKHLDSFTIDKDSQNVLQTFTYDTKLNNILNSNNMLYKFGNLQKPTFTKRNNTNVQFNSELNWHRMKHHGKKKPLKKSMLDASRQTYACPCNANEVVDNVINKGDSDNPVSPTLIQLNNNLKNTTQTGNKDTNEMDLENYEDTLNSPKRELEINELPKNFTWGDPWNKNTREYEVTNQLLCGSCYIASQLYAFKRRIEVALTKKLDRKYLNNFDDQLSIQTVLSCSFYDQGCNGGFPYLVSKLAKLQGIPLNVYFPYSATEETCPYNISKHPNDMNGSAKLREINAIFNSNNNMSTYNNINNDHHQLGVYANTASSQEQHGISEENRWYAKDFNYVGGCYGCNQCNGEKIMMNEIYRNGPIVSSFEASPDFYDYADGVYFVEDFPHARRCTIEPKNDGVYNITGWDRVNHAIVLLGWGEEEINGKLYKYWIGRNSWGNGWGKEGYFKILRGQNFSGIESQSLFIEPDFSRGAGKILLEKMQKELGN
Design: species or system P. falciparum D10 trophozoite lysates; single well
For Cc1ccnc(NC(=O)c2ccc(C(C)(C)C)cc2)c1, the “% Inhibition @ 10 uM” value was 1.34%.
CC1=C(C(=O)NC2CCCCC2C)C2(CCC(C)CC2)OC1=O (stereo not drawn) was tested, and the “% Inhibition @ 10 uM” value was -1.89%.
COC(=O)c1c(-c2ccc(Br)cc2)csc1N was tested, and the “% Inhibition @ 10 uM” value was 4.98%.
Cn1c(C(=O)NCCOc2ccccc2Cl)cc(=O)n(C)c1=O was tested, and the “% Inhibition @ 10 uM” value was 1.11%.
For O=C1c2ccccc2-c2nc3ncnn3c(-c3ccccc3Cl)c21, the “% Inhibition @ 10 uM” value was 1.01%.
With COC(=O)c1cc(=O)n(Cc2ccccc2)/c(=N/Cc2ccccc2)s1 the “% Inhibition @ 10 uM” value was -7.13%.
With Cc1cc(C)c2c(=O)n(CC(=O)NC(C)c3ccccc3)sc2n1 (stereo not drawn) the “% Inhibition @ 10 uM” value was 3.59%.
For O=C(NCC1CCCO1)NC1(C(F)(F)F)Oc2ccc(Cl)cc2O1 (stereo not drawn), the “% Inhibition @ 10 uM” value was -7.83%.
COc1ccccc1C1C(C#N)=C(N)OC2=C1C(=O)CC(C)(C)C2 (stereo not drawn) was tested, and the “% Inhibition @ 10 uM” value was -1.59%.
In the case of Cc1ccc2[nH]c(CCc3nc4cc(C)ccc4[nH]3)nc2c1, the “% Inhibition @ 10 uM” value is reported as -6.71%.
In the case of Nc1nonc1-c1nnnn1CC(=O)N1CCOCC1, the “% Inhibition @ 10 uM” value is reported as 14.6%.
With CCOP(=O)(c1ccccc1)C(O)c1ccc(F)cc1 (stereo not drawn) the “% Inhibition @ 10 uM” value was 0.408%.
O=C(c1ccccc1)c1cc(F)c(N2CCCCC2)cc1Cl was tested, and the “% Inhibition @ 10 uM” value was 2.65%.
In the case of O=C(Cc1cccc2ccccc12)Nc1ccccc1C(=O)Nc1ccccc1, the “% Inhibition @ 10 uM” value is reported as 4.25%.
In the case of COc1cccc(N(CC(=O)NCC(C)C)S(=O)(=O)c2ccc(C)cc2)c1, the “% Inhibition @ 10 uM” value is reported as -12%.
COc1ccc(C2=N/C(=C\C(C)=C\c3ccccc3)C(=O)O2)cc1OC was tested, and the “% Inhibition @ 10 uM” value was 0.0932%.
For Nc1nc(N)nc(-c2ccc(Br)cc2)n1, the “% Inhibition @ 10 uM” value was 3%.
CC(=O)c1ccc(NC(=O)CSC(C)C)cc1 was tested, and the “% Inhibition @ 10 uM” value was -4.91%.
With CCC(C)NC(=O)Cn1c(=O)c2cccn2c2cccnc21 (stereo not drawn) the “% Inhibition @ 10 uM” value was -6.96%.
With Cc1ccc2ncnc(N(CC(C)C)CC(C)C)c2c1 the “% Inhibition @ 10 uM” value was -3.06%.
With COCCN1C(=O)c2oc3ccccc3c(=O)c2C1c1ccc(C(=O)OC)cc1 (stereo not drawn) the “% Inhibition @ 10 uM” value was -2.91%.
With Cc1noc2ncnc(NCCC3=CCCCC3)c12 the “% Inhibition @ 10 uM” value was -2.34%.
In the case of CCOC(=O)N1CCN(C(=O)C2CC(c3cc(OC)ccc3OC)=NO2)CC1 (stereo not drawn), the “% Inhibition @ 10 uM” value is reported as 4.41%.
In the case of COc1ccc(OC)c2c(C)cc(N[C@H]3CC[C@H](O)CC3)nc12, the “% Inhibition @ 10 uM” value is reported as -0.13%.
With COc1ccc(N(CC(=O)Nc2cccc(C)c2)S(=O)(=O)c2ccc(NC(C)=O)cc2)cc1 the “% Inhibition @ 10 uM” value was -6.77%.
In the case of O=C(NC1CCCC1)c1ccc(CNc2c(N3CCCCC3)c(=O)c2=O)cc1, the “% Inhibition @ 10 uM” value is reported as -0.0309%.
In the case of CC(C)C(=O)NCCc1nc2ccccc2n1CCCOc1ccc(Cl)cc1, the “% Inhibition @ 10 uM” value is reported as 3.24%.
With O=C(CCSc1nc2ccccc2n1S(=O)(=O)c1ccccc1)N1CCCCC1 the “% Inhibition @ 10 uM” value was -2.19%.
COC(=O)c1sc(N2C(=O)c3oc4ccccc4c(=O)c3C2c2ccc(C(C)C)cc2)nc1C (stereo not drawn) was tested, and the “% Inhibition @ 10 uM” value was -0.828%.
With COc1cc(C(=O)NCc2ccc3c(c2)OCO3)cc(OC)c1OC the “% Inhibition @ 10 uM” value was -9.26%.
With COc1cc(C2Nc3ccccc3N=C3CC(C)(C)CC(O)=C32)ccc1O (stereo not drawn) the “% Inhibition @ 10 uM” value was -2.07%.
For CCc1ccc(-c2cc(C(=O)N(CC)Cc3ccccc3)n[nH]2)cc1, the “% Inhibition @ 10 uM” value was -3.31%.
In the case of COc1ccc(CNC(=O)CNC2=NC(=O)C(c3ccccc3)(c3ccccc3)N2)cc1, the “% Inhibition @ 10 uM” value is reported as 0.324%.
In the case of c1cc(CNC2CCCCC2)n(-c2nnc(N3CCCC3)s2)c1, the “% Inhibition @ 10 uM” value is reported as -9.4%.
CCCC(C)C1C(C#N)=C(N)OC2=C1C(=O)CCC2 (stereo not drawn) was tested, and the “% Inhibition @ 10 uM” value was 0.777%.
For C=CCc1cc(/C=C2\SC(=O)N(C)C2=O)cc(OCC)c1OC, the “% Inhibition @ 10 uM” value was 5.37%.
With O=C(Nc1ccc(N2CCN(C(=O)c3cccs3)CC2)cc1)c1ccccc1Cl the “% Inhibition @ 10 uM” value was 2.84%.
In the case of CCc1ccc(CNCCCCO)cc1, the “% Inhibition @ 10 uM” value is reported as 6.69%.
COc1ccc(-c2ccccc2)cc1N1C(=O)c2ccc(F)cc2C1=O was tested, and the “% Inhibition @ 10 uM” value was 1.35%.
With CCOc1ccc(OCc2ccc(C(=O)N3N=C(C(F)F)CC3(O)C(F)F)cc2)cc1 (stereo not drawn) the “% Inhibition @ 10 uM” value was 0.389%.
For CC1(C)CN=C(N2CCNCC2)S1, the “% Inhibition @ 10 uM” value was 1.44%.
With CC(C)CCNC(=O)c1cc(O)nc2ccc(S(=O)(=O)N3CCOCC3)cc12 the “% Inhibition @ 10 uM” value was 3.27%.
In the case of CC(C)C[C@H](NC(=O)c1ccccc1OC(F)F)C(=O)NCC#N, the “% Inhibition @ 10 uM” value is reported as 3.19%.
With COCc1ccc2c(c1)c1c3n2CCN(Cc2ccccc2)C3CCC1 (stereo not drawn) the “% Inhibition @ 10 uM” value was 2.98%.
With CCSc1cnn(C)c(=O)c1SCC the “% Inhibition @ 10 uM” value was 3.95%.
In the case of O=C(NCCc1ccc(Cl)cc1)C1CCN(S(=O)(=O)N2CCC3(CC2)OCCO3)CC1, the “% Inhibition @ 10 uM” value is reported as 0.514%.
With CCc1nnc(NC(=O)c2nc(SCc3ccc(C)cc3)ncc2Cl)s1 the “% Inhibition @ 10 uM” value was 0.758%.
O=c1c(Sc2ccccc2)c(O)c2ccccc2n1-c1ccccc1 was tested, and the “% Inhibition @ 10 uM” value was 2.37%.
With CCC12CN(C(=O)c3ccc(OC)cc3)CC(CC)(CN(C(=O)c3ccc(OC)cc3)C1)C2=O the “% Inhibition @ 10 uM” value was 0.275%.
For Cc1ccc(CSCc2nc3ccccc3[nH]2)cc1, the “% Inhibition @ 10 uM” value was 1.64%.
Cc1cc(-c2ccc(C)c(S(=O)(=O)NC(C)Cc3ccco3)c2)on1 (stereo not drawn) was tested, and the “% Inhibition @ 10 uM” value was -3.61%.
